Experimental data from the supplement of paper PMC4967469.

compound: COc1ccc(C2=N[C@@H](c3ccc(Cl)cc3)[C@@H](c3ccc(Cl)cc3)N2C(=O)N2CCNC(=O)C2)c(OC(C)C)c1 [Nutlin-3a]; assay: Viability of human cancer cell lines after 72 h of drug (GDSC screen)
Method: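 Human cancer cell lines in 384-well plates, medium with 10% serum, drug for 72 h over a 256-fold dose range (nine 2-fold or five 4-fold steps up to the top dose). Adherent lines were fixed and stained with the nucleic acid dye Syto60, suspension lines read with resazurin; signal relative to control wells, capped at 0 and 100%. One two-parameter sigmoid per drug and line, fitted in a mixed model over all curves with the slope shared within a line.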

| Cell Line | AUC | IC50 [µM] |
| --- | --- | --- |
| 639-V (bladder, adherent, top dose 8 µM) | 0.95 | > 8 |
| 647-V (bladder, adherent, top dose 8 µM) | 0.987 | > 8 |
| 697 (lymphoblastic leukaemia, suspension, top dose 8 µM) | 0.747 | 2.13 |
| 786-0 (kidney, adherent, top dose 8 µM) | 0.965 | > 8 |
| 5637 (bladder, adherent, top dose 8 µM) | 0.988 | > 8 |
| 8305C (thyroid, adherent, top dose 8 µM) | 0.982 | > 8 |
| 8505C (thyroid, adherent, top dose 8 µM) | 0.959 | > 8 |
| 23132-87 (stomach, adherent, top dose 8 µM) | 0.931 | > 8 |
| A3-KAW (B-cell lymphoma, suspension, top dose 8 µM) | 0.888 | 5.83 |
| A4-Fuk (B-cell lymphoma, suspension, top dose 8 µM) | 0.92 | > 8 |
| A101D (melanoma, adherent, top dose 8 µM) | 0.754 | 3.26 |
| A172 (glioma, adherent, top dose 4 µM) | 0.844 | – |
| A253 (head and neck, adherent, top dose 8 µM) | 0.989 | > 8 |
| A388 (skin, adherent, top dose 8 µM) | 0.978 | > 8 |
| A427 (non-small cell lung carcinoma, adherent, top dose 8 µM) | 0.876 | > 8 |
| A498 (kidney, adherent, top dose 8 µM) | 0.93 | > 8 |
| A673 (rhabdomyosarcoma, adherent, top dose 8 µM) | 0.987 | > 8 |
| A704 (kidney, adherent, top dose 8 µM) | 0.967 | > 8 |
| A2780 (ovary, semi-adherent, top dose 8 µM) | 0.957 | > 8 |
| AGS (stomach, adherent, top dose 8 µM) | 0.731 | 2.1 |
| ALL-PO (lymphoblastic leukaemia, suspension, top dose 8 µM) | 0.807 | 4.38 |

| Cell Line | AUC | IC50 [µM] |
| --- | --- | --- |
| ALL-SIL (T-cell leukaemia, suspension, top dose 8 µM) | 0.952 | > 8 |
| AM-38 (glioma, semi-adherent, top dose 8 µM) | 0.818 | 4.64 |
| AMO-1 (haematopoietic neoplasm, suspension, top dose 8 µM) | 0.86 | 5.22 |
| ARH-77 (myeloma, suspension, top dose 8 µM) | 0.975 | > 8 |
| ASH-3 (thyroid, adherent, top dose 8 µM) | 0.988 | > 8 |
| ATN-1 (T-cell lymphoblastic leukaemia, suspension, top dose 8 µM) | 0.749 | 2.45 |
| AU565 (breast, adherent, top dose 8 µM) | 0.982 | > 8 |
| AsPC-1 (pancreas, adherent, top dose 4 µM) | 0.87 | > 4 |
| BALL-1 (B-cell leukaemia, suspension, top dose 8 µM) | 0.994 | > 8 |
| BB30-HNC (head and neck, adherent, top dose 8 µM) | 0.91 | > 8 |
| BB49-HNC (head and neck, adherent, top dose 8 µM) | 0.833 | > 8 |
| BC-1 (B-cell lymphoma, suspension, top dose 8 µM) | 0.856 | 4.98 |
| BCPAP (thyroid, adherent, top dose 4 µM) | 0.987 | > 4 |
| BE2-M17 (neuroblastoma, adherent, top dose 8 µM) | 0.983 | > 8 |
| BE-13 (lymphoblastic leukaemia, suspension, top dose 8 µM) | 0.925 | > 8 |
| BFTC-905 (bladder, adherent, top dose 8 µM) | 0.988 | > 8 |
| BHT-101 (thyroid, adherent, top dose 8 µM) | 0.899 | > 8 |
| BHY (head and neck, adherent, top dose 4 µM) | 0.987 | > 4 |
| BICR10 (head and neck, adherent, top dose 8 µM) | 0.953 | > 8 |
| BICR22 (head and neck, adherent, top dose 8 µM) | 0.964 | > 8 |
| BICR78 (head and neck, adherent, top dose 8 µM) | 0.965 | > 8 |

| Cell Line | AUC | IC50 [µM] |
| --- | --- | --- |
| BL-41 (Burkitt lymphoma, suspension, top dose 8 µM) | 0.994 | > 8 |
| BPH-1 (prostate, adherent, top dose 4 µM) | 0.957 | > 4 |
| BT-20 (breast, adherent, top dose 8 µM) | 0.984 | > 8 |
| BT-474 (breast, adherent, top dose 8 µM) | 0.982 | > 8 |
| BT-483 (breast, adherent, top dose 8 µM) | 0.948 | > 8 |
| BT-549 (breast, adherent, top dose 8 µM) | 0.979 | > 8 |
| BV-173 (chronic myeloid leukaemia, suspension, top dose 8 µM) | 0.638 | 1.15 |
| Becker (glioma, adherent, top dose 8 µM) | 0.965 | > 8 |
| BxPC-3 (pancreas, adherent, top dose 8 µM) | 0.98 | > 8 |
| C2BBe1 (large intestine, adherent, top dose 4 µM) | 0.849 | 3.65 |
| C3A (liver, adherent, top dose 8 µM) | 0.966 | > 8 |
| C32 (melanoma, adherent, top dose 8 µM) | 0.819 | 4.97 |
| C-4-I (cervix, adherent, top dose 8 µM) | 0.986 | > 8 |
| CA46 (Burkitt lymphoma, suspension, top dose 8 µM) | 0.983 | > 8 |
| CADO-ES1 (Ewing sarcoma, suspension, top dose 8 µM) | 0.936 | > 8 |
| CAL-12T (non-small cell lung carcinoma, adherent, top dose 8 µM) | 0.957 | > 8 |
| CAL-27 (head and neck, adherent, top dose 8 µM) | 0.985 | > 8 |
| CAL-29 (bladder, adherent, top dose 8 µM) | 0.92 | > 8 |
| CAL-33 (head and neck, adherent, top dose 8 µM) | 0.931 | > 8 |
| CAL-39 (cervix, adherent, top dose 8 µM) | 0.981 | > 8 |
| CAL-51 (breast, adherent, top dose 8 µM) | 0.892 | 7.18 |

| Cell Line | AUC | IC50 [µM] |
| --- | --- | --- |
| CAL-54 (kidney, adherent, top dose 4 µM) | 0.861 | > 4 |
| CAL-62 (thyroid, adherent, top dose 8 µM) | 0.988 | > 8 |
| CAL-72 (osteosarcoma, adherent, top dose 8 µM) | 0.958 | > 8 |
| CAL-78 (chondrosarcoma, adherent, top dose 8 µM) | 0.985 | > 8 |
| CAL-85-1 (breast, adherent, top dose 8 µM) | 0.964 | > 8 |
| CAL-120 (breast, adherent, top dose 8 µM) | 0.937 | > 8 |
| CAPAN-1 (pancreas, adherent, top dose 8 µM) | 0.985 | > 8 |
| CAS-1 (glioma, adherent, top dose 8 µM) | 0.979 | > 8 |
| CCF-STTG1 (glioma, adherent, top dose 8 µM) | 0.793 | 3.68 |
| CCK-81 (large intestine, adherent, top dose 8 µM) | 0.698 | 1.73 |
| CCRF-CEM (lymphoblastic leukaemia, suspension, top dose 8 µM) | 0.936 | > 8 |
| CESS (acute myeloid leukaemia, suspension, top dose 8 µM) | 0.879 | 6.22 |
| CFPAC-1 (pancreas, adherent, top dose 8 µM) | 0.941 | > 8 |
| CGTH-W-1 (thyroid, adherent, top dose 8 µM) | 0.98 | > 8 |
| CHL-1 (melanoma, adherent, top dose 8 µM) | 0.982 | > 8 |
| CHP-126 (neuroblastoma, suspension, top dose 8 µM) | 0.821 | 4.8 |
| CHP-134 (neuroblastoma, suspension, top dose 8 µM) | 0.769 | 3.84 |
| CHP-212 (neuroblastoma, adherent, top dose 8 µM) | 0.667 | 1.4 |
| CHSA0011 (chondrosarcoma, adherent, top dose 8 µM) | 0.903 | > 8 |
| CHSA0108 (chondrosarcoma, adherent, top dose 8 µM) | 0.981 | > 8 |
| CHSA8926 (chondrosarcoma, adherent, top dose 8 µM) | 0.833 | > 8 |

Lines with a small IC50 respond at low doses; a limit (>, <) means that the fit lies beyond the doses tested. AUC is the area under the same curve over the 256-fold range up to the top dose, as a fraction; it is 1 without any effect and falls as sensitivity rises.
